Experimental data as given in US12583848B2, “Isoxazole-3-carboxamide derivatives and their use for treatment of diseases caused by virus infection” (Collaborations Pharmaceuticals, Inc., priority 2019, dated 2026).
Not every entry of the source has a single result; some have several. The other results are left out here. An entry can have further records. Values given together appear to be repeats (runs, samples, wells or individuals). Records carry a tag for their origin. The letters are not those of the source and start again with each entry.

Test system: Enterovirus D68 (EV-D68 MP30 PP)
Assay type: in vivo, AG129 mice
Settings: 30 mg/kg/day, day 5 post-infection

## Cc1cc(-c2noc(C(F)(F)F)n2)ccc1OCCCc1cc(C(=O)N(C)C)no1 [Compound 8, N,N-dimethyl-5-(3-{2-methyl-4-[5-(trifluoromethyl)-1,2,4-oxadiazol-3-yl]phenoxy}propyl)isoxazole-3-carboxamide]
  lung virus titers compared to placebo: reduction in virus titer [passage A] and reduced lung virus titers [passage B]
